The labels stand for the following.
B1: TPR 5TU (parent)
chain: GGAUCUUCUCGAUCUAACAAAAAAGACAAAUCUGCCACAAAGCUUGAGAGCAUCUUCGGAUGCAGAGGCGGCAGCCUUCGGUGGCGCGAUAGCGCCAACGUUCUCAACUAUGACACGCAAAACGCGUGCUCCGUUGAAUGGAGUUUAUCAUG

This is an account of results in the RNAGym collection of RNA variant scans (doi:10.1073/pnas.2313332121).

Variants at the floor of the assay are shown more often than the library holds them. A value given as a limit tells only on which side of the number the result lay.

The variants in this series derive from B1. Nature of the series: polymerase ribozyme fitness, log enrichment relative to wild type (log ratio); higher = more active; in vitro selection for triplet polymerase activity. Put shortly:
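Each subunit of a heterodimeric triplet polymerase ribozyme was represented by a PCR-built, transcribed mutant library that underwent triplicate single-round in vitro selection with frozen incubation at −7 °C. Extended constructs were recovered by gel excision, streptavidin-bead capture and RT-PCR, and Illumina sequencing of input and output libraries kept genotypes with ≥10 input reads and ≥1 read per output. Fitness is the logarithm of genotype enrichment relative to wild-type enrichment, from inverse-variance-weighted replicate averages, with a logarithm base of 2.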
Consider G68A A91C A120G A147C, for which the “polymerase ribozyme fitness (log ratio)” value was at most -4.2.

Take G71A C99U: the “polymerase ribozyme fitness (log ratio)” value is at most -4.2.

With G68U G141C, the “polymerase ribozyme fitness (log ratio)” value is at most -4.2.

As for G68A G70U C99G, the “polymerase ribozyme fitness (log ratio)” value is at most -4.2.

Turning to G70A C87U C96A C118G A147C, the “polymerase ribozyme fitness (log ratio)” value was at most -4.2.

Regarding G70U U139G, the “polymerase ribozyme fitness (log ratio)” value is -2.93.

As for C69G C103A U144G, the “polymerase ribozyme fitness (log ratio)” value was -1.57.

Take G68U A73G U82A G92A U101C C116A A137C: the “polymerase ribozyme fitness (log ratio)” value is at most -4.2.

As for G68U A73G C79G C85U U102G A113C G124A, the “polymerase ribozyme fitness (log ratio)” value is at most -4.2.

For the variant G67C G86C C114U A122U G124A G143A U145A, the “polymerase ribozyme fitness (log ratio)” value was at most -4.2.

As for C69A C72U, the “polymerase ribozyme fitness (log ratio)” value was -3.05.

A66G C85U G100U G112C U146C: the “polymerase ribozyme fitness (log ratio)” value was at most -4.2.

Turning to A66G A106G U139A, the “polymerase ribozyme fitness (log ratio)” value is at most -4.2.

In the case of G70A C79A C87G C99U C105U A142G, the “polymerase ribozyme fitness (log ratio)” value was at most -4.2.

For the variant C69G C93U U101C C118U, the “polymerase ribozyme fitness (log ratio)” value is at most -4.2.

As to G67A U78A C87U A106U, the “polymerase ribozyme fitness (log ratio)” value is at most -4.2.

On to G70C G92U, for which the “polymerase ribozyme fitness (log ratio)” value is -3.01.

Regarding C69U C85G G141A, the “polymerase ribozyme fitness (log ratio)” value is -2.66.

As for G71A C95G C99A A138U, the “polymerase ribozyme fitness (log ratio)” value is at most -4.2.

With G67C C75U G84A C132U G136U U151A, the “polymerase ribozyme fitness (log ratio)” value is at most -4.2.

In the case of G70A G88C C96G U134G, the “polymerase ribozyme fitness (log ratio)” value is at most -4.2.

As to G70U C85U G88C U145C, the “polymerase ribozyme fitness (log ratio)” value is at most -4.2.

Turning to G70A G74C C125G U144G, the “polymerase ribozyme fitness (log ratio)” value was at most -4.2.

On to C69A G83C U101G, for which the “polymerase ribozyme fitness (log ratio)” value is at most -4.2.

G67A G86A G88C A106C G143A A150U: the “polymerase ribozyme fitness (log ratio)” value is at most -4.2.

On to A66C G92U C132G U139G, for which the “polymerase ribozyme fitness (log ratio)” value is at most -4.2.

As to G67C C79G U127C C129U, the “polymerase ribozyme fitness (log ratio)” value is at most -4.2.

Turning to G67A U77G A98G U144A, the “polymerase ribozyme fitness (log ratio)” value was at most -4.2.

Turning to G68A G86A C87G, the “polymerase ribozyme fitness (log ratio)” value is at most -4.2.

Regarding G67A C72A A142U, the “polymerase ribozyme fitness (log ratio)” value is at most -4.2.

As for G68U G94C C116A A121C, the “polymerase ribozyme fitness (log ratio)” value is at most -4.2.

With C69U C76U A97U U109G G112C C125A, the “polymerase ribozyme fitness (log ratio)” value was at most -4.2.

Take A66U C76A C87A G140U C149U: the “polymerase ribozyme fitness (log ratio)” value is at most -4.2.

Take G68A C85U: the “polymerase ribozyme fitness (log ratio)” value was -3.48.

In the case of C69A C85G A121C, the “polymerase ribozyme fitness (log ratio)” value is -3.43.

Regarding A66U G83U G133A A138U U146A, the “polymerase ribozyme fitness (log ratio)” value was at most -4.2.

Regarding C69A G83A G143U, the “polymerase ribozyme fitness (log ratio)” value is -3.59.

For the variant G68C A91C A106U U127A, the “polymerase ribozyme fitness (log ratio)” value is at most -4.2.

In the case of G70C C93U, the “polymerase ribozyme fitness (log ratio)” value was at most -4.2.

Turning to C69A C93U A106C A107C G143A, the “polymerase ribozyme fitness (log ratio)” value was at most -4.2.

In the case of A66U A106C G117U, the “polymerase ribozyme fitness (log ratio)” value was at most -4.2.

Take G67A C96A: the “polymerase ribozyme fitness (log ratio)” value was -3.46.

On to G67A U151C, for which the “polymerase ribozyme fitness (log ratio)” value was at most -4.2.

As to G67A C85A U104G A138U, the “polymerase ribozyme fitness (log ratio)” value is at most -4.2.

On to G70C C99U U134C, for which the “polymerase ribozyme fitness (log ratio)” value was at most -4.2.

For the variant C69G U78G A113C, the “polymerase ribozyme fitness (log ratio)” value was at most -4.2.

As to G68U C85A A110G C132G A137G G141C U151G, the “polymerase ribozyme fitness (log ratio)” value was at most -4.2.

On to G68U C79A U102G A119G, for which the “polymerase ribozyme fitness (log ratio)” value is at most -4.2.

Regarding G68C U78A G94A A122G C125G G140C, the “polymerase ribozyme fitness (log ratio)” value is at most -4.2.

With G70C A113C U144C A147C, the “polymerase ribozyme fitness (log ratio)” value is at most -4.2.

Turning to C69U G86A U151G, the “polymerase ribozyme fitness (log ratio)” value was at most -4.2.

As for G68A C79A C85G C125A C129U, the “polymerase ribozyme fitness (log ratio)” value is at most -4.2.

Turning to A66C G86U C93U C108U G128U, the “polymerase ribozyme fitness (log ratio)” value is at most -4.2.

Take A66G G133U U145A: the “polymerase ribozyme fitness (log ratio)” value is at most -4.2.

For G68U C85G C149G, the “polymerase ribozyme fitness (log ratio)” value is at most -4.2.

G68A G88A C96G C118A G126A: the “polymerase ribozyme fitness (log ratio)” value was -4.16.

Turning to G67A C85A G88C G100C, the “polymerase ribozyme fitness (log ratio)” value is at most -4.2.

In the case of G67C G68A G83A U90A G117A, the “polymerase ribozyme fitness (log ratio)” value is at most -4.2.

Turning to A66C G71C G84U, the “polymerase ribozyme fitness (log ratio)” value was at most -4.2.

On to G70A G84A C93G A137U G140U, for which the “polymerase ribozyme fitness (log ratio)” value is at most -4.2.

For G67U G83U U101G, the “polymerase ribozyme fitness (log ratio)” value was at most -4.2.

For G70C G88U, the “polymerase ribozyme fitness (log ratio)” value is at most -4.2.

As to A66G C87A C103A, the “polymerase ribozyme fitness (log ratio)” value is at most -4.2.

For A66C G92U G100U A115U A119C G133U, the “polymerase ribozyme fitness (log ratio)” value was at most -4.2.

As for G68A C85U C93U C132U A138G, the “polymerase ribozyme fitness (log ratio)” value was at most -4.2.

For G68U C103A C114G, the “polymerase ribozyme fitness (log ratio)” value is at most -4.2.

Regarding G67C C93G C118G A150C, the “polymerase ribozyme fitness (log ratio)” value is at most -4.2.

Regarding G70A C76A C79G A91U, the “polymerase ribozyme fitness (log ratio)” value is at most -4.2.

In the case of G68A C87A, the “polymerase ribozyme fitness (log ratio)” value was at most -4.2.

As for G67A G68C A142G U145G, the “polymerase ribozyme fitness (log ratio)” value is at most -4.2.

A66C G86U C118A A137U: the “polymerase ribozyme fitness (log ratio)” value is at most -4.2.

In the case of C69A A73G, the “polymerase ribozyme fitness (log ratio)” value was -2.98.

For G71A A97G A113U A121U A122U A137G, the “polymerase ribozyme fitness (log ratio)” value was at most -4.2.

Consider G68C C96A A97C C105U U146C C149U A150G U151G, for which the “polymerase ribozyme fitness (log ratio)” value is at most -4.2.

Regarding A66U C69A, the “polymerase ribozyme fitness (log ratio)” value is at most -4.2.

Consider A66G G128A G133U, for which the “polymerase ribozyme fitness (log ratio)” value was at most -4.2.

Regarding G70U U78G G83C U102C U144A U146G C149A, the “polymerase ribozyme fitness (log ratio)” value is at most -4.2.

G68A C103G G140U: the “polymerase ribozyme fitness (log ratio)” value was at most -4.2.

With C69U C118U, the “polymerase ribozyme fitness (log ratio)” value is -1.4.

Regarding G68A C76A G86A U102C G124C G152A, the “polymerase ribozyme fitness (log ratio)” value is at most -4.2.

G68U C96G C118G U127C G133U G141A: the “polymerase ribozyme fitness (log ratio)” value is at most -4.2.

Consider G68U A73U G94A A119U, for which the “polymerase ribozyme fitness (log ratio)” value is at most -4.2.

C69U C85G A97G: the “polymerase ribozyme fitness (log ratio)” value is at most -4.2.
